The results in this text go back to PubChem BioAssay AID1508642 (National Center for Advancing Translational Sciences (NCATS), 2021).

Structures are written as SMILES. Screen size: about 43,000 compounds; about 200 (0.47%) were called active. Roughly 12% stayed inconclusive and do not appear here. The call rests on the fitted dose curve; in most records, active means well fitted cell-killing curve with a large enough effect; inconclusive means small, poorly fitted or top-dose-only effect, or effect the other way; inactive means flat fitted curve, though single readings scatter. This is one part of the list.
On the % scale 0 is the no-effect control and ±100 the full control effect.

The nature of this test: Cell viability qHTS assay in S16 Pmp22-F2sN cells. Further: nearly all actives have a fitted effect of over 65% in size. Particulars: S16 Pmp22-F2sN Schwann cells (luciferase reporters placed in the Pmp22 gene) viability, CellTiter-Glo, 24 h; series mostly up to 57.5 µM; activity change, negative = cytotoxicity: at the top concentration. The method, boiled down:
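Rat S16 Schwann reporter line, 24 h treatment with library compounds delivered at 23 nL per well. Cell viability by CellTiter-Glo luminescence.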
(In general: qHTS replaces the single test concentration by a dilution series.)
On to `CCN(CC)S(=O)(=O)c1ccc2c(c1)N(CC(=O)N1CCN(c3cccc(OC)c3)CC1)C(=O)CO2`, for which the “activity change, negative = cytotoxicity” value is inactive: -3.2%. As for `CCOc1ccccc1CNC(=O)c1ccc2c(c1)nc1n2CCCCC1`, the figure is inactive: 2.12%. In the case of `Cc1c(Nc2nc3ccccc3n3c(C)nnc23)cccc1C(=O)O` it was inactive: -1.19%. In the case of `CCc1ccc(NC(=O)c2ccc(F)c(S(=O)(=O)NCc3ccc(Cl)c(Cl)c3)c2)cc1` it was inactive: 10.5%.

In the case of `CN(C)c1ccc(-c2nc(-c3ccco3)no2)cc1[N+](=O)[O-]`, the “activity change, negative = cytotoxicity” value was inactive: -9.25%.

With `O=C(Nc1ccccc1)N(Cc1cccs1)c1ccc(F)cc1`, the “activity change, negative = cytotoxicity” value was inactive: 2.06%. As for `CCCN(C(=O)c1cc2c(=O)oc3ccccc3c2s1)c1cccc(Cl)c1`, the figure is inactive: 13.6%; as for `CCCc1cc(=O)n2[nH]c(NC(=O)c3ccccc3Cl)nc2n1`, inactive: 1.31%. As for `CCOC(=O)N1CCN(C(=O)CN(c2cccc(Cl)c2)S(=O)(=O)c2ccccc2)CC1`, the figure is inactive: -0.709%.

Regarding `Cc1ccc(NC(=O)N2CCc3cc(S(=O)(=O)N4CCC(C)CC4)ccc32)cc1F`, the “activity change, negative = cytotoxicity” value was inactive: 5.69%. In the case of `CCOC(=O)c1ccc(N2C(=O)c3[nH]nc(-c4ccc(OC)cc4)c3C2c2ccccc2Cl)cc1` (stereo unspecified) it was inactive: 20.9%.

For the compound `COc1ccc(C2c3c(n(C)c4ccccc34)C(=O)N2CC(=O)Nc2cc(Cl)ccc2C)cc1` (stereo unspecified), the “activity change, negative = cytotoxicity” value is inactive: -18.5%. For the compound `Cc1ccc2onc(CC(=O)Nc3cccc(C(F)(F)F)c3)c2c1`, the “activity change, negative = cytotoxicity” value was inactive: -25.3%. As for `CCc1cccc(NS(=O)(=O)c2ccc3c(c2)n(C)c(=O)c(=O)n3C)c1`, the figure is inactive: -4.23%; as for `CCOC(=O)c1c(NC(=O)CSc2cn(CCNC(=O)c3ccc(OC)c(OC)c3)c3ccccc23)sc2c1CCCC2`, inactive: 3.48%; as for `Cc1ccc(CNC(=O)CCCn2nc(C)c3c(C)n(-c4ccccc4)nc3c2=O)cc1`, inactive: -0.64%. As for `CCOC(=O)CSc1nc2cc3c(cc2c(=O)n1CCCC(=O)NCCc1ccc(OC)c(OC)c1)OCO3`, the “activity change, negative = cytotoxicity” value is inactive: -14.9%. Take `COc1cccc(CNC(=O)c2cc(S(=O)(=O)N3CCCCCC3)cn2C)c1`: the “activity change, negative = cytotoxicity” value was inactive: 15.7%. In the case of `CCOC(=O)c1sc(N2C(=O)c3oc4ccc(C)cc4c(=O)c3C2c2ccccc2F)nc1C` (stereo unspecified) it was inactive: 0.707%; in that of `CCC1CN(C(=O)Nc2cc(C)ccc2OC)c2cc(Cl)ccc2O1` (stereo unspecified), inactive: 6.35%. In the case of `Cc1cc(C)cc(OCC(=O)NC(Cc2c[nH]c3ccccc23)C(=O)O)c1` (stereo unspecified) it was inactive: 4.15%. In the case of `CCOc1ccc(S(=O)(=O)Nc2ccc3oc(C)c(C(=O)OC(C)C)c3c2)cc1` it was inactive: -3.47%.

`Cc1cccc(OCC(=O)Nc2c(C(=O)N3CCN(c4ccccc4F)CC3)oc3ccccc23)c1`: the “activity change, negative = cytotoxicity” value was inactive: 9.78%.

`COC(=O)c1ccc(NC(=O)CC2Nc3cc(C)c(C)cc3NC2=O)cc1` (stereo unspecified): the “activity change, negative = cytotoxicity” value is inactive: 2.01%. In the case of `COc1ccccc1NCc1cccn1-c1nnc(N2CCCCCC2)s1` it was inactive: -1.08%; in that of `Cc1cc(C)n(-c2nc3ccccc3nc2Nc2ccc(Cl)c(Cl)c2)n1`, inactive: 3.33%.
